{
  "source": "PubChem BioAssay AID1159614",
  "about": "(National Center for Advancing Translational Sciences (NCATS), 2016)",
  "note": "Hit rate of the full screen: of about 45,000 compounds, about 65 (0.1%) were called active. The call rests on the fitted dose curve; in most records, active means well fitted activation curve with a large enough effect; inconclusive means small, poorly fitted or top-dose-only effect; inactive means no such curve, though single readings can be large or run the other way. The list shows a part of the results. Numbered stars: 1 amine (or outer) side, 2 acyl side, 3 side chain; on linkers, the order of the positions; unused ones are H or OH. Bridge positions count the residues as written; N and C are the ends. Square brackets hold non-standard residues; d marks the D form. Peptide text beside a SMILES is read from it. * marks the point of attachment. ξ: configuration not given here. ΔAla(3-NHCONH2) = NC(=O)NC=C(N)C(=O)O; X1 = NC1=NCCC(C(N[*:1])C(=O)[*:2])N1; ξβ3hOrn = NCCCC(N)CC(=O)*; Dap = NC[CH](N)C(=O)O",
  "data": [
    {"target": "Galactocerebrosidase (Homo sapiens) (UniProt P54803)", "sequence (P54803 whole entry, looked up)": "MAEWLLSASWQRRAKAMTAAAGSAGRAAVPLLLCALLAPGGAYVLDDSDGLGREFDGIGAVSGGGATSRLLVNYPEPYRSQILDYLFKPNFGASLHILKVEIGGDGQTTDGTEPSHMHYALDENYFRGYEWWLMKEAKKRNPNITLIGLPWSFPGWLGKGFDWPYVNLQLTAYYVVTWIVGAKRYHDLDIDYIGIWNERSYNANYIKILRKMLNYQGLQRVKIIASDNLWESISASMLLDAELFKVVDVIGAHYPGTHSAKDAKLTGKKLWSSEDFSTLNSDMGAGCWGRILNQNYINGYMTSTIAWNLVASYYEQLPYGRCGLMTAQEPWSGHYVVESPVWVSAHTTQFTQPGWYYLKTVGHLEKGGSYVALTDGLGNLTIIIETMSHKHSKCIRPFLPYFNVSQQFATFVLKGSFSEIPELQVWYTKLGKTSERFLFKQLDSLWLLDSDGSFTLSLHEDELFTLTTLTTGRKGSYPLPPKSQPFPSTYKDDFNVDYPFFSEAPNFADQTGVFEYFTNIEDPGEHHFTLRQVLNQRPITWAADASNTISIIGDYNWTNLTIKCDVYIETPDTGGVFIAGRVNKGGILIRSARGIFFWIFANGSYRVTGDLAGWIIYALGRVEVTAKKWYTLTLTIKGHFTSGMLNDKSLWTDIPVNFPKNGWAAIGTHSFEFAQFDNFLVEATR", "assay": "A Novel Cell-Based Assay to Identify Small Molecules for B -Galactocerebrosidase; further: 0% is about no effect; nearly all actives have a fitted effect of over 65% in size", "settings": "145M-Twi-hGALC-G270D cells (Twitcher mouse brain line with human GALC G270D), HMU-beta-Gal fluorescence, 48 h; series mostly up to 57.5 µM; activation: at the top concentration", "method_in_brief": "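Mutant human GALC (G270D), stably expressed in a Twitcher mouse brain cell line lacking endogenous GALC, is measured in live-treated cells via 6-hexadecanoylamino-4-methylumbelliferyl-β-galactoside hydrolysis (0.1 mM final, pH 5.2) with fluorescent detection.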", "values": [
      {"smiles": "CC(NC(=O)CN(c1ccc(Cl)cc1Cl)S(=O)(=O)c1ccccc1)c1ccccc1", "note": "(stereo not drawn)", "activation": "inactive: -16.5%"},
      {"smiles": "O=C(Cn1c(-c2cccs2)cc2cc(Cl)ccc21)N1CCN(c2ccccc2F)CC1", "activation": "inactive: -14.7%"},
      {"smiles": "CCC(=O)Nc1ccc(CC)cc1-c1nc2ccccc2n(Cc2ccccc2)c1=O", "activation": "inactive: -24.4%"},
      {"smiles": "COc1ccc(C(=O)c2oc3ccccc3c2NC(=O)COc2cccc(C)c2C)cc1", "activation": "inactive: -24.7%"},
      {"smiles": "Cc1ccc(OC(=O)CSc2nnc(-c3cccs3)o2)cc1", "activation": "inactive: -6.98%"},
      {"smiles": "CNC(=O)c1c(NC(=O)/C=C/c2ccccc2Cl)sc2c1CCC2", "activation": "inactive: -11.2%"},
      {"smiles": "CCn1c(=O)c2sccc2n2c(CCC(=O)N3CCN(c4ccc(C(C)=O)cc4)CC3)nnc12", "activation": "inactive: 1.38%"},
      {"smiles": "Cc1ccccc1C(=O)N(Cc1nc(-c2ccc(Cl)cc2)no1)C(C)C", "activation": "inactive: -11.8%"},
      {"smiles": "CCOc1ccccc1NC(=O)Cn1c(=O)n(Cc2ccccc2)c(=O)c2cccnc21", "activation": "inactive: -1.75%"},
      {"smiles": "CC(=O)Nc1ccccc1-c1nc2ccccc2n(Cc2cccc(Br)c2)c1=O", "activation": "inactive: -19.1%"},
      {"smiles": "CCOC(=O)C(C)NC(=O)C1CCN(c2ncnc3c2nc2n3CCCCC2)CC1", "note": "(stereo not drawn)", "activation": "inactive: -9.4%"},
      {"smiles": "Cc1cc(C)c(NC(=O)Cn2nnc(-c3ccccc3)n2)c(C)c1", "activation": "inactive: -9.59%"},
      {"smiles": "Cc1cc(S(=O)(=O)NCC(c2ccco2)S(=O)(=O)c2ccccc2)ccc1F", "note": "(stereo not drawn)", "activation": "inactive: -13.6%"},
      {"smiles": "O=C(Cn1ccc2cc(S(=O)(=O)N3CCCCC3)ccc21)NCc1cccc(Cl)c1", "activation": "inactive: 2.76%"},
      {"smiles": "CC1CCC(NC(=O)c2cc3c(Cl)nc4ccccc4c3s2)CC1", "note": "(stereo not drawn)", "activation": "inactive: -21.1%"},
      {"smiles": "CCc1nnc(NC(=O)C(=O)c2cc(C)n(-c3ccccc3)c2C)s1", "activation": "inactive: -7.42%"},
      {"smiles": "CC(C)N(Cc1ccccc1)C(=O)Cn1ncc2c([nH]c3ccccc32)c1=O", "activation": "inactive: -3.75%"},
      {"smiles": "O=C(CN1CCCN(Cc2ccccc2Cl)S1(=O)=O)NCc1ccccc1", "activation": "inactive: -10.3%"},
      {"smiles": "Cc1cccn2c(=O)cc(COc3cccc(NC(=O)COc4ccc(F)cc4)c3)nc12", "activation": "inactive: -11.1%"},
      {"smiles": "Cc1ccc(NC(=O)N2CCC(c3ccccc3)C2)cc1C", "note": "(stereo not drawn)", "activation": "inactive: 1.33%"},
      {"smiles": "Cc1ccc(-c2nonc2NC(=O)c2ccc(F)cc2)cc1C", "activation": "inactive: -5.4%"},
      {"smiles": "Cc1cccc(NC(=O)CSc2c(C)cnc3c2c(=O)n(C)c(=O)n3C)c1C", "activation": "inactive: -7.41%"},
      {"smiles": "O=S(=O)(NCC(c1ccco1)N1CCOCC1)c1cc(F)ccc1F", "note": "(stereo not drawn)", "activation": "inactive: -6.55%"},
      {"smiles": "O=C(CSc1nc2c([nH]c3ccccc32)c(=O)n1-c1ccc(Cl)cc1)N1CCOCC1", "activation": "inactive: -23.3%"},
      {"smiles": "CCC1CCCCN1CC(=O)Nc1cc(C)c2c(=O)oc3ccccc3c2n1", "note": "(stereo not drawn)", "activation": "inactive: -9.78%"},
      {"smiles": "Cc1cc(C)cc(NC(=O)C2CCCN(C(=O)c3cnn(-c4ccccc4)c3-n3cccc3)C2)c1", "note": "(stereo not drawn)", "activation": "inactive: -13.9%"},
      {"smiles": "CCCOc1ccc(C(=O)N(Cc2ccc(N(C)C)cc2)CC2CCCO2)cc1", "note": "(stereo not drawn)", "activation": "inactive: -6.35%"},
      {"smiles": "NCCCC(N)CC(=O)NCC1NC(=O)C(CO)NC(=O)C(N)CNC(=O)C(C2CCN=C(N)N2)NC(=O)C(=CNC(N)=O)NC1=O", "note": "(stereo not drawn) (H-[Dap]S[Dap](ξβ3hOrn)[ΔAla(3-NHCONH2)][X1]; lactam 1-C; configuration not given here)", "activation": "inactive: -15.9% [at 0.46 µM]"}
    ]}
  ]
}
